Test results reported in the supplement of paper PMC8728848.
The other results are listed elsewhere or left out.

How the values were obtained:
Assay in all cases: glycan array binding signal (z-score within array); higher = stronger binding
Details in all cases: glycan notation: IUPAC condensed, linker removed
[1] = molecular target: Gal(b1-4)GlcNAc(b1-3)Gal(b1-4)GlcNAc(b1-3)Gal(b1-4)GlcNAc(b1-2)Man(a1-3)[Gal(b1-4)GlcNAc(b1-3)Gal(b1-4)GlcNAc(b1-3)Gal(b1-4)GlcNAc(b1-2)Man(a1-6)]Man(b1-4)GlcNAc(b1-4)GlcNAc
How it was run: (§1)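 The binding signal is a Z-score computed within each array and averaged over linkers. Arrays of the same protein sequence at different concentrations or buffers were also averaged together. Data originate from 3228 arrays in the Consortium for Functional Glycomics database, kept only where the protein sequence was available.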

[2] = molecular target: Gal(b1-4)GlcNAc(b1-3)Gal(b1-4)GlcNAc(b1-3)Gal(b1-4)GlcNAc(b1-2)Man(a1-3)[Gal(b1-4)GlcNAc(b1-3)Gal(b1-4)GlcNAc(b1-3)Gal(b1-4)GlcNAc(b1-2)Man(a1-6)]Man(b1-4)GlcNAc(b1-4)[Fuc(a1-6)]GlcNAc
How it was run: as §1

[3] = molecular target: Gal(b1-4)GlcNAc(b1-3)Gal(b1-4)GlcNAc(b1-3)Gal(b1-4)GlcNAc(b1-2)[Gal(b1-4)GlcNAc(b1-3)Gal(b1-4)GlcNAc(b1-3)Gal(b1-4)GlcNAc(b1-6)]Man(a1-6)[Gal(b1-4)GlcNAc(b1-3)Gal(b1-4)GlcNAc(b1-3)Gal(b1-4)GlcNAc(b1-2)Man(a1-3)]Man(b1-4)GlcNAc(b1-4)[Fuc(a1-6)]GlcNAc
How it was run: as §1

[4] = molecular target: Gal(b1-4)GlcNAc(b1-3)Gal(b1-4)GlcNAc(b1-3)Gal(b1-4)GlcNAc(b1-3)Gal(b1-4)GlcNAc(b1-2)Man(a1-3)[Gal(b1-4)GlcNAc(b1-3)Gal(b1-4)GlcNAc(b1-3)Gal(b1-4)GlcNAc(b1-3)Gal(b1-4)GlcNAc(b1-2)Man(a1-6)]Man(b1-4)GlcNAc(b1-4)GlcNAc
How it was run: as §1

[5] = molecular target: Gal(b1-4)GlcNAc(b1-3)Gal(b1-4)GlcNAc(b1-3)Gal(b1-4)GlcNAc(b1-3)Gal(b1-4)GlcNAc(b1-2)Man(a1-3)[Gal(b1-4)GlcNAc(b1-3)Gal(b1-4)GlcNAc(b1-3)Gal(b1-4)GlcNAc(b1-3)Gal(b1-4)GlcNAc(b1-2)Man(a1-6)]Man(b1-4)GlcNAc(b1-4)[Fuc(a1-6)]GlcNAc
How it was run: as §1

[6] = molecular target: Gal(b1-4)GlcNAc(b1-3)Gal(b1-4)GlcNAc(b1-3)Gal(b1-4)GlcNAc(b1-3)Gal(b1-4)GlcNAc(b1-2)[Gal(b1-4)GlcNAc(b1-3)Gal(b1-4)GlcNAc(b1-3)Gal(b1-4)GlcNAc(b1-3)Gal(b1-4)GlcNAc(b1-6)]Man(a1-6)[Gal(b1-4)GlcNAc(b1-3)Gal(b1-4)GlcNAc(b1-3)Gal(b1-4)GlcNAc(b1-3)Gal(b1-4)GlcNAc(b1-2)Man(a1-3)]Man(b1-4)GlcNAc(b1-4)[Fuc(a1-6)]GlcNAc
How it was run: as §1

[7] = molecular target: Gal(b1-4)GlcNAc(b1-3)Gal(b1-4)GlcNAc(b1-3)Gal(b1-4)GlcNAc(b1-3)Gal(b1-4)GlcNAc(b1-3)Gal(b1-4)GlcNAc(b1-2)Man(a1-3)[Gal(b1-4)GlcNAc(b1-3)Gal(b1-4)GlcNAc(b1-3)Gal(b1-4)GlcNAc(b1-3)Gal(b1-4)GlcNAc(b1-3)Gal(b1-4)GlcNAc(b1-2)Man(a1-6)]Man(b1-4)GlcNAc(b1-4)GlcNAc
How it was run: as §1

[8] = molecular target: Gal(b1-4)GlcNAc(b1-3)Gal(b1-4)GlcNAc(b1-3)Gal(b1-4)GlcNAc(b1-3)Gal(b1-4)GlcNAc(b1-3)Gal(b1-4)GlcNAc(b1-2)Man(a1-3)[Gal(b1-4)GlcNAc(b1-3)Gal(b1-4)GlcNAc(b1-3)Gal(b1-4)GlcNAc(b1-3)Gal(b1-4)GlcNAc(b1-3)Gal(b1-4)GlcNAc(b1-2)Man(a1-6)]Man(b1-4)GlcNAc(b1-4)[Fuc(a1-6)]GlcNAc
How it was run: as §1

[9] = molecular target: Gal(b1-4)GlcNAc(b1-3)Gal(b1-4)GlcNAc(b1-3)Gal(b1-4)GlcNAc(b1-3)Gal(b1-4)GlcNAc(b1-3)Gal(b1-4)GlcNAc(b1-2)[Gal(b1-4)GlcNAc(b1-3)Gal(b1-4)GlcNAc(b1-3)Gal(b1-4)GlcNAc(b1-3)Gal(b1-4)GlcNAc(b1-3)Gal(b1-4)GlcNAc(b1-6)]Man(a1-6)[Gal(b1-4)GlcNAc(b1-3)Gal(b1-4)GlcNAc(b1-3)Gal(b1-4)GlcNAc(b1-3)Gal(b1-4)GlcNAc(b1-3)Gal(b1-4)GlcNAc(b1-2)Man(a1-3)]Man(b1-4)GlcNAc(b1-4)[Fuc(a1-6)]GlcNAc
How it was run: as §1

[10] = molecular target: Gal(b1-4)GlcNAc(b1-3)Gal(b1-4)GlcNAc(b1-3)Gal(b1-4)GlcNAc(b1-3)Gal(b1-4)GlcNAc(b1-3)Gal(b1-4)GlcNAc(b1-3)Gal(b1-4)GlcNAc(b1-2)Man(a1-3)[Gal(b1-4)GlcNAc(b1-3)Gal(b1-4)GlcNAc(b1-3)Gal(b1-4)GlcNAc(b1-3)Gal(b1-4)GlcNAc(b1-3)Gal(b1-4)GlcNAc(b1-3)Gal(b1-4)GlcNAc(b1-2)Man(a1-6)]Man(b1-4)GlcNAc(b1-4)GlcNAc
How it was run: as §1

[11] = molecular target: Gal(b1-4)GlcNAc(b1-3)Gal(b1-4)GlcNAc(b1-3)GalNAc
How it was run: as §1

[12] = molecular target: Gal(b1-4)GlcNAc(b1-3)Gal(b1-4)GlcNAc(b1-3)[Gal(b1-4)GlcNAc(b1-3)Gal(b1-4)GlcNAc(b1-6)]GalNAc
How it was run: as §1

[13] = molecular target: Gal(b1-4)GlcNAc(b1-3)Gal(b1-4)GlcNAc(b1-6)[Gal(b1-3)]GalNAc
How it was run: as §1

[14] = molecular target: Gal(b1-4)GlcNAc(b1-3)Gal(b1-4)[Fuc(a1-3)]GlcNAc(b1-3)Gal(b1-4)[Fuc(a1-3)]GlcNAc
How it was run: as §1

[15] = molecular target: Gal(b1-4)GlcNAc(b1-3)GalNAc
How it was run: as §1

[16] = molecular target: Gal(b1-4)GlcNAc(b1-3)[Fuc(a1-3)GlcNAc(b1-6)]Gal(b1-4)Glc
How it was run: as §1

[17] = molecular target: Gal(b1-4)GlcNAc(b1-3)[Gal(b1-4)GlcNAc(b1-6)]Gal(b1-4)GlcNAc
How it was run: as §1

[18] = molecular target: Gal(b1-4)GlcNAc(b1-3)[GlcNAc(b1-6)]Gal(b1-4)GlcNAc
How it was run: as §1

[19] = molecular target: Gal(b1-4)GlcNAc(b1-6)Gal(b1-4)GlcNAc
How it was run: as §1

B1: B1567 (Bifidobacterium sp) (protein)
chain: MKFTTAKKAVALTGAVAMLVSVAACGSDSGKSSQPAQDSDVKEITVWAWEPSLTQVAKDFEKETGIKVDLKNVGTNTKEYTQLDNAIEAGSGAPDVAQVEYYAVPQYAIKGNLLDITDKTSGYKDFYTPGPWASVQFAGKVYGLPMDSGPMAFFYNKEVFDKAGVDAEQIKTWDQYYDAAKKIHALGDNYYITSDTGDAGFFDSMTWLAGAKPFQTSSDGSEVTVNLTEDKGVKTFTDFWQKLLDEGLLDTKTAGWSEDWFKGMVDGTIASLFTGAWMPANLANSAADGAGKWRVTQMPTADGSTTNSENGGSSLAVLASTKKADAAYQFIEYANHGAGVATRVAGGAFPADKASLEKDSFKNATTVKNADGQDVDYFGGQKYNEVLAQAAENVSSGYQFLPFEVKARTIFGDYFGKSYTGDQKLSDGVAAWQKALQDYGKDQGFTVK
- glycan array binding signal (z-score) [1]: 0.282
- glycan array binding signal (z-score) [2]: 0.333
- glycan array binding signal (z-score) [3]: 0.271
- glycan array binding signal (z-score) [4]: 0.021
- glycan array binding signal (z-score) [5]: 0.252
- glycan array binding signal (z-score) [6]: 0.348
- glycan array binding signal (z-score) [7]: 0.252
- glycan array binding signal (z-score) [8]: 0.106
- glycan array binding signal (z-score) [9]: 0.223
- glycan array binding signal (z-score) [10]: 1.66
- glycan array binding signal (z-score) [11]: -0.089
- glycan array binding signal (z-score) [12]: -0.057
- glycan array binding signal (z-score) [13]: -0.047
- glycan array binding signal (z-score) [14]: 1.8
- glycan array binding signal (z-score) [15]: -0.131
- glycan array binding signal (z-score) [16]: -0.116
- glycan array binding signal (z-score) [17]: -0.165
- glycan array binding signal (z-score) [18]: -0.069
- glycan array binding signal (z-score) [19]: -0.131
